# Assay results reported in PubChem BioAssay (Tox21).
# Values joined by “and” are separate entries in the source; they are usually repeats but may differ in a detail not shown here. Equal values may be shown once. Inconclusive results, whose numbers are uncertain, are shown with a selection of clear calls. A call without a number means that no potency is given here. For part of these data: A potency beside an inconclusive call is a rough fit, not a confirmed value. A structure can be active in one record and inactive in another. Active and inactive are the calls of the source. Unless noted, calls come from the whole dose curve; as a rule, active = well fitted curve in the direction sought with a large enough effect in the repeat runs; inconclusive = weak or mixed curves; inactive = no such curve, though single readings can be large; an effect the other way counts as inactive or inconclusive.
# Columns and labels:
# [1] = A CellTox Green Cytotoxicity Assay to monitor cytotoxicity in HepG2 cells - 16 hour (AID 1224876); note: nearly all actives have a fitted effect of over 45% in size; note: potency is the fitted concentration of half-maximal effect
# Summary of the method: (§1)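 Cells and non-lytic dye reagent are dispensed together (600 HepG2 cells/well) and incubated 5 h before DMSO compound transfer. Kinetic fluorescence is then recorded in the same wells during 40 h at 37 C.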
# [2] = A CellTox Green Cytotoxicity Assay to monitor cytotoxicity in HepG2 cells - 32 hour (AID 1224883); note: nearly all actives have a fitted effect of over 50% in size; note: potency is the fitted concentration of half-maximal effect
# Summary of the method: as §1
# [3] = qHTS assay to identify small molecule antagonists of the thyroid receptor (TR) signaling pathway (AID 743065); note: nearly all actives have a fitted effect of over 55% in size; note: potency is the fitted concentration of half-maximal effect
# Summary of the method: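 GH3.TRE-Luc rat pituitary cells carrying two TR response elements driving luciferase were plated for 4 h, given compound plus 1 nM T3 (final), and incubated 23.5 h at 37 C. ONE-Glo luminescence measured reporter inhibition; CellTiter-Fluor fluorescence tracked cytotoxicity.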
# [4] = A CellTox Green Cytotoxicity Assay to monitor cytotoxicity in HepG2 cells - 40 hour (AID 1224879); note: nearly all actives have a fitted effect of over 40% in size; note: potency is the fitted concentration of half-maximal effect
# Summary of the method: as §1
# [5] = qHTS assay for small molecule agonists of the p53 signaling pathway - cell viability (AID 651633; calls by dose curve;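 note: p53RE-bla HCT reporter cells with a stable beta-lactamase p53 reporter; nearly all actives have a fitted effect of over 30% in size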)
# Summary of the method: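 p53RE-bla cells, seeded at 4,000 per well and rested 5 h at 37 C/5% CO2, received compounds in DMSO for 16 h at 37 C. CellTiter-Glo was then added, and luminescence was read after 30 min at room temperature to gauge cytotoxicity.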
# [6] = qHTS assay to identify small molecule antagonists of the TGF-beta/Smad signaling pathway - cell viability counter screen (AID 1346824); note: nearly all actives have a fitted effect of over 50% in size; note: potency is the fitted concentration of half-maximal effect
# Summary of the method: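 SBE-bla HEK 293T cells were plated overnight at 37 C, then given compounds in DMSO plus TGF-beta1 (added as 0.25 ng/mL solution) for 5 hr. After the bla read, CellTiter-Glo was added to the same wells and luminescence read after 30 min at room temperature.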
# [7] = molecular target: Androgen receptor (Homo sapiens) (UniProt P10275); assay: qHTS assay to identify small molecule antagonists of the androgen receptor (AR) signaling pathway (AID 743035; active = well fitted inhibition curve with a large enough effect in the signal ratio in the repeat runs, not every such curve was filed as active; inconclusive = weak or mixed curves, or effect the other way; inactive = no such curve, though single readings can be large or run the other way; the % refers to the signal ratio; note: potency is the fitted concentration of half-maximal effect); conditions: HEK293 AR-UAS-bla, R1881-stimulated, beta-lactamase FRET, 16 h; activity change, negative = inhibition: at 58.5 µM (top of the series) unless noted
# Sequence of UniProt P10275 (P10275 whole entry, looked up): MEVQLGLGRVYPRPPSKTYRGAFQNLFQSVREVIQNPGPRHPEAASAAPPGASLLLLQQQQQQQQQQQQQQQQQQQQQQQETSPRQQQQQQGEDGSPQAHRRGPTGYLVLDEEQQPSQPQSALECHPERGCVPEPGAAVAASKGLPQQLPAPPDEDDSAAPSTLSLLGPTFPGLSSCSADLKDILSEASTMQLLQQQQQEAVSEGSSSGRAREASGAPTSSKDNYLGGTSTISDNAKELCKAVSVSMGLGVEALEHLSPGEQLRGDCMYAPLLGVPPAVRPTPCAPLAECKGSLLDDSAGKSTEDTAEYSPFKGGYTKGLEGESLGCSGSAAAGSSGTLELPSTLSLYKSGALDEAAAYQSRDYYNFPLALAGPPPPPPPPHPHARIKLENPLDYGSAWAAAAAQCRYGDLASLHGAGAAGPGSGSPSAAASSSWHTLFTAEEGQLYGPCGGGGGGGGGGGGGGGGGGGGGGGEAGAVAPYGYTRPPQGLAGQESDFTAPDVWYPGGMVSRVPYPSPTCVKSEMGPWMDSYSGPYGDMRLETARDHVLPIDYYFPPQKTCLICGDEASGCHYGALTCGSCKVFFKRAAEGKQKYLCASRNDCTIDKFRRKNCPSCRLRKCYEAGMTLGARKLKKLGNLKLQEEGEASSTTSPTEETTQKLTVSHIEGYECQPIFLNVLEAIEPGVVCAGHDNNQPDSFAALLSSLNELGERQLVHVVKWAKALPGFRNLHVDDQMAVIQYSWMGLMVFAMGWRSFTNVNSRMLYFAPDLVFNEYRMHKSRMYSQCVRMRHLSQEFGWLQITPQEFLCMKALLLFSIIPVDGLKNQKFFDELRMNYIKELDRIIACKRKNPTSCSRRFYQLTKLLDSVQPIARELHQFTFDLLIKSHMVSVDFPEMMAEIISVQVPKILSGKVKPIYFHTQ
# Summary of the method: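 Steps: seed AR-UAS-bla GripTite HEK293 cells, incubate 4 h at 37C; pin in test compound, then add agonist R1881; incubate 16 h at 37C; add LiveBLAzer B/G FRET substrate, 2 h at room temperature; read fluorescence.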
# [8] = A CellTox Green Cytotoxicity Assay to monitor cytotoxicity in HEK293 cells - 24 hour (AID 1224875); note: nearly all actives have a fitted effect of over 45% in size; note: potency is the fitted concentration of half-maximal effect
# Summary of the method: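 Cells (HEK293, 600/well) and dye reagent are dispensed together. After 5 h at 37 C, 23 nL compound is pinned in. Plates stay at 37 C for 40 h with fluorescence read at 0h, 8h, 16h, 24h, 32h and 40h.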
# [9] = molecular target: Aryl hydrocarbon receptor (Homo sapiens) (UniProt P35869); assay: qHTS assay to identify small molecule that activate the aryl hydrocarbon receptor (AhR) signaling pathway (AID 743085); note: nearly all actives have a fitted effect of over 15% in size; note: potency is the fitted concentration of half-maximal effect;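 for activation: HG2L7.5c1 human HepG2 liver cells with stably integrated DRE-driven firefly reporter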
# Sequence of UniProt P35869 (P35869 whole entry, looked up): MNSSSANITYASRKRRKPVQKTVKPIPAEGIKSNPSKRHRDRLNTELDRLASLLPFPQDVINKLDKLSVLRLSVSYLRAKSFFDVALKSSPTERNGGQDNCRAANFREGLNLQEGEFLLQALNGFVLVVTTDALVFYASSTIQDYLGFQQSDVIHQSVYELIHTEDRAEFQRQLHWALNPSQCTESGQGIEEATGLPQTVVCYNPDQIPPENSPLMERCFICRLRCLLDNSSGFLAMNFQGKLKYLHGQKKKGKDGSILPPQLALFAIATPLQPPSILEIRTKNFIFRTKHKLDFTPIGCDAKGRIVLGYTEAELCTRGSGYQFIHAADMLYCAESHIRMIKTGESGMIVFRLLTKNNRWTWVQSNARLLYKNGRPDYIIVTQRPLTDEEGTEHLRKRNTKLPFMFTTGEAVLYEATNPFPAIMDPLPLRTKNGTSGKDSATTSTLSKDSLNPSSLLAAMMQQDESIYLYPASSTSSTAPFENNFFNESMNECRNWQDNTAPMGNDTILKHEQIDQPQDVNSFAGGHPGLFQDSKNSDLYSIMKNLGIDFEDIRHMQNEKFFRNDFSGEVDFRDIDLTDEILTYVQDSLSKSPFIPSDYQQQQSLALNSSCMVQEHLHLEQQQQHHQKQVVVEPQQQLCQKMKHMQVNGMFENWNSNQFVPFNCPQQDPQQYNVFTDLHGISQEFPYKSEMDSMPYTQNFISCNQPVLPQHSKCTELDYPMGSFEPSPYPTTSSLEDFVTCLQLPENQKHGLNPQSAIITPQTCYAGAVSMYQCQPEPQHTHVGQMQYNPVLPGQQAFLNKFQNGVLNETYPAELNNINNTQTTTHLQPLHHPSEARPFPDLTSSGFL
# Summary of the method: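 Stably transfected human liver carcinoma cells (HG2L7.5c1; 20 DRE-firefly luciferase) were incubated 5 h, dosed, and kept 24 h at 37C. Agonism was scored from increased luciferase luminescence.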
# [10] = Caspase-3/7 induction in HepG2 cells by small molecules, qHTS cell viability counter screen (AID 1346981); note: nearly all actives have a fitted effect of over 30% in size; note: potency is the fitted concentration of half-maximal effect
# Summary of the method: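 Cell viability is measured as a cytotoxicity counter screen alongside the Caspase-Glo 3/7 readout in identical wells. Wild-type HepG2 cells are treated with test compounds for 16 hr at 37 C before CellTiter-Fluor addition and a 1-hr incubation.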
# [11] = molecular target: Estrogen receptor (Homo sapiens) (UniProt P03372); assay: qHTS assay to identify small molecule antagonists of the estrogen receptor alpha (ER-alpha) signaling pathway (AID 743069; active = well fitted curve in the direction sought with a large enough effect in the signal ratio in the repeat runs, not every such curve was filed as active; inconclusive = weak or mixed curves, or effect the other way; inactive = no such curve, though single readings can be large or run the other way; the % refers to the signal ratio); conditions: HEK293 ER-alpha-UAS-bla, beta-lactamase ratio, antagonist mode; activity, negative = inhibition: at 69.4 µM (top of the series) unless noted
# Sequence of UniProt P03372 (P03372 whole entry, looked up): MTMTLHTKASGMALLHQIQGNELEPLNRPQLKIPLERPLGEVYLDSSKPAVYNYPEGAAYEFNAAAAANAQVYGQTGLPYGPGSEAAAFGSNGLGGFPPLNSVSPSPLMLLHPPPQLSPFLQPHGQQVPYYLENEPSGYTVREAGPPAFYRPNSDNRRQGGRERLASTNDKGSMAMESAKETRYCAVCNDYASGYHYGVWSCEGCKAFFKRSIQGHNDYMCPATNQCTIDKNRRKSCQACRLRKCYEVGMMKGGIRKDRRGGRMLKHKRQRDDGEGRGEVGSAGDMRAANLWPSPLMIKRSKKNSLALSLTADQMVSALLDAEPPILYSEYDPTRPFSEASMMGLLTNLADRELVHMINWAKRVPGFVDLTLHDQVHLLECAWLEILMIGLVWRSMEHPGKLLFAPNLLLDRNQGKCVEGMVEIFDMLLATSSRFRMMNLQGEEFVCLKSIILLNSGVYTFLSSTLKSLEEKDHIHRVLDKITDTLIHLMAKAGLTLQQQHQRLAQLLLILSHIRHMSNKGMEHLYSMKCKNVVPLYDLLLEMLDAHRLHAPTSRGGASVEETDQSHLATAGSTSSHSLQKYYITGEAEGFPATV
# Summary of the method: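 Screening used a UAS-driven beta-lactamase reporter integrated into HEK293 cells expressing ER-alpha, stimulated with 17beta-estradiol alongside test compounds over 18 hr at 37C; signal came from LiveBLAzer B/G FRET fluorescence.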
# [12] = qHTS assay to identify small molecule agonists of the vitamin D receptor (VDR) signaling pathway - cell viability counter screen (AID 743224); note: nearly all actives have a fitted effect of over 50% in size; note: potency is the fitted concentration of half-maximal effect
# Summary of the method: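 Cells: VDR-bla, 2,000/well, settled 4 h. Treatment: compounds in DMSO, 16 h, 37C/5% CO2. Readout: CellTiter-Glo luminescence after 30 min RT.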
# [13] = qHTS assay to identify small molecule agonists of the TGF-beta/Smad signaling pathway (AID 1346859; active = well fitted activation curve with a large enough effect in the signal ratio in the repeat runs, not every such curve was filed as active; inconclusive = weak or mixed curves; the % refers to the signal ratio; note: potency is the fitted concentration of half-maximal effect)
# Summary of the method: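 Screening used HEK 293T SBE-bla cells at 4,000/well. Test agents: 5 hr, 37 C. Detection: FRET substrate, 2 hr RT, then excitation 405 nm with emissions at 460 and 530 nm.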
# [14] = qHTS assay for small molecule activators of the heat shock response signaling pathway (AID 743210; active = well fitted activation curve with a large enough effect in the signal ratio in the repeat runs, with a control signal flat, not every such curve was filed as active; inconclusive = weak or mixed curves; the % refers to the signal ratio; note: potency is the fitted concentration of half-maximal effect;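 for activation: HeLa cells with beta-lactamase reporter driven by heat shock elements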); conditions: HeLa HSE-bla reporter, beta-lactamase ratio, 5 h; activation: at 62.6 µM (top of the series) unless noted
# Summary of the method: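 Activation of heat shock element-controlled beta-lactamase expression is measured in HeLa cells by LiveBLAzer FRET fluorescence, with compound exposure lasting 5 h at 37 C and substrate loading 2.5 h at room temperature.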
# [15] = molecular target: Glucocorticoid receptor (Homo sapiens) (UniProt P04150); assay: qHTS assay to identify small molecule agonists of the glucocorticoid receptor (GR) signaling pathway (AID 720691; active = well fitted activation curve with a large enough effect in the signal ratio in the repeat runs, not every such curve was filed as active; inconclusive = weak or mixed curves, or effect the other way; inactive = no such curve, though single readings can be large or run the other way; the % refers to the signal ratio); conditions: GR-bla HeLa, beta-lactamase reporter ratio, 18 h; activation: at 62.4 µM (top of the series) unless noted
# Sequence of UniProt P04150 (P04150 whole entry, looked up): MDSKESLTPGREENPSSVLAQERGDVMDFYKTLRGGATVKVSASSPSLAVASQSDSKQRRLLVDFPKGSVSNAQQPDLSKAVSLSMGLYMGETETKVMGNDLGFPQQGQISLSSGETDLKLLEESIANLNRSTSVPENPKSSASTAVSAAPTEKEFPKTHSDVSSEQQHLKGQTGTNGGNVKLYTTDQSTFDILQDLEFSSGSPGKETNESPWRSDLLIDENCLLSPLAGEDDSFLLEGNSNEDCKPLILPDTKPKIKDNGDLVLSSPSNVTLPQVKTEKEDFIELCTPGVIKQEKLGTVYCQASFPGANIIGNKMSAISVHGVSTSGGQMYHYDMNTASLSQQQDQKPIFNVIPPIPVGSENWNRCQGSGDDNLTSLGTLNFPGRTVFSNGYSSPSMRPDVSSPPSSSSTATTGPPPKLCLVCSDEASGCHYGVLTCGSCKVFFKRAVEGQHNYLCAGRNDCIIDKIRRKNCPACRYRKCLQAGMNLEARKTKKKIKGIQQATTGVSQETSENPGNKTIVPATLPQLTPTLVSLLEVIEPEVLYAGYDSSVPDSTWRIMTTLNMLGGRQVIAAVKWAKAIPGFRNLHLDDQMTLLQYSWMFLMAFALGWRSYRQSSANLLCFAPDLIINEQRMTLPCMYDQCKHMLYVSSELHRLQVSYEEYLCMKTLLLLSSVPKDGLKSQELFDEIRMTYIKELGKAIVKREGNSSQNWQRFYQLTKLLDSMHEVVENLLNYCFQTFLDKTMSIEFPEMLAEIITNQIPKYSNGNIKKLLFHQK
# Summary of the method: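 Steps: seed GR-bla HeLa cells, incubate 4 h at 37 C/5% CO2; pin-transfer DMSO-dissolved compounds; incubate 18 h at 37 C; add LiveBLAzer B/G FRET substrate; after 2 h at room temperature, measure fluorescence.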
# [16] = qHTS assay for small molecule agonists of the antioxidant response element (ARE) signaling pathway - cell viability counter screen (AID 743203; calls by dose curve; note: nearly all actives have a fitted effect of over 55% in size; note: potency is the fitted concentration of half-maximal effect); conditions: ARE-bla HepG2 viability, CellTiter-Glo luminescence, 16 h; viability change, negative = cytotoxic: at 73.3 µM (top of the series)
# Summary of the method: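 Cytotoxicity was tested in parallel with the ARE reporter screen. ARE-bla HepG2 cells were exposed to compounds for 16 hrs, and viability was taken from CellTiter-Glo luminescence.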
# [17] = qHTS assay to identify small molecule antagonists of the sonic hedgehog signaling (Shh) pathway - cell viability counter screen (AID 1259367); note: nearly all actives have a fitted effect of over 55% in size; note: potency is the fitted concentration of half-maximal effect
# Summary of the method: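 Cytotoxicity was assessed in parallel with Shh reporter activity by measuring live-cell protease fluorescence (CellTiter-Fluor) in NIH/3T3 cells stably carrying Gli1-Luc, treated with compound under conditioned medium stimulation for 23 hr plus 1 hr reagent incubation.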
# [18] = Human pregnane X receptor (PXR) small molecule agonists, qHTS cell viability counter screen (AID 1346977); note: nearly all actives have a fitted effect of over 50% in size; note: potency is the fitted concentration of half-maximal effect
# Summary of the method: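 In each well, the PXR reporter HepG2 line was checked for viability: CellTiter-Fluor reagent added 23hr post-dosing, fluorescence read after 1hr incubation at 37C.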
# [19] = molecular target: Thyrotropin receptor (Homo sapiens) (UniProt P16473); assay: qHTS assay to identify small molecule agonists of the thyroid stimulating hormone receptor (TSHR) signaling pathway (AID 1224843; calls by dose curve; note: potency is the fitted concentration of half-maximal effect; nearly all actives have a fitted effect of over 45% in size); conditions: TSHR-HEK293 cells, cAMP HTRF, agonist mode, 30 min; activation: at 92.4 µM (top of the series) unless noted
# Sequence of UniProt P16473 (P16473 whole entry, looked up): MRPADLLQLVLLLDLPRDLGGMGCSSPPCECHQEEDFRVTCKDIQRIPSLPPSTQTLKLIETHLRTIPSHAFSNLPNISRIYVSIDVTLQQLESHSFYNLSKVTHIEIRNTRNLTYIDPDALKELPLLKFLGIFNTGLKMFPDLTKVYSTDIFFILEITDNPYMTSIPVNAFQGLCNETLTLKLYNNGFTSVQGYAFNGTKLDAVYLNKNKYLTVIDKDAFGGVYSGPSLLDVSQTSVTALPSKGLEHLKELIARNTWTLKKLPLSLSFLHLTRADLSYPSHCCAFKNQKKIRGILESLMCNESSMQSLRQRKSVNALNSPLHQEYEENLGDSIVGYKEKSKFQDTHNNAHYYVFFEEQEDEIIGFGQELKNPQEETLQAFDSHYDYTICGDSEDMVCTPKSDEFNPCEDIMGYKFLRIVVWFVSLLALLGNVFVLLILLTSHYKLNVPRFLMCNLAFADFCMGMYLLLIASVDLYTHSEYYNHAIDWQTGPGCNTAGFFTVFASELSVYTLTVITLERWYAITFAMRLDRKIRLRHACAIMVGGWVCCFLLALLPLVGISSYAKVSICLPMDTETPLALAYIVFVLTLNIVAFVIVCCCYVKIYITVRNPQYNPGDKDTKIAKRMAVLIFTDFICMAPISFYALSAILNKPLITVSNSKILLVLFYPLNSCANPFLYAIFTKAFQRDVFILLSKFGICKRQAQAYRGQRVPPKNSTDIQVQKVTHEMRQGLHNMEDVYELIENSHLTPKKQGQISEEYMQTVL
# Summary of the method: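 Compounds are titrated over 15 concentrations, in triplicate, onto TSHR-HEK293 cells seeded at 800/well. Plates sit 30 min at room temperature before cAMP-d2 and anti-cAMP cryptate are added; signal is read after a further hour.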
# Tags give direction and shape of the fitted curve or compound fluorescence and quenching.
compound,measurement,setting,value
CCOP(=O)(OCC)OCC,Potency,[1],"inactive and inconclusive: 5.49 µM [activator, full curve, poor fit]"
same,Potency,[2],"inconclusive: 7.76 µM [activator, partial curve, poor fit]"
O=NN1CCOCC1,Potency,[3],inactive
same,Potency,[4],"inconclusive: 61.6 µM [activator, single point]"
same,Potency,[2],"inconclusive: 61.6 µM [activator, single point]"
COc1ccc(CO)cc1,Potency,[5],inactive
same,Potency,[6],"inconclusive: 27.5 µM [cytotoxic, partial curve, poor fit]"
CCCCOP(=O)(O)OCCCC,Potency,[7],inactive
COC[C@H](C)N(C(=O)CCl)c1c(C)csc1C,Potency,[8],inactive
same,Potency,[1],inactive
O=P(O)(Oc1ccccc1)Oc1ccccc1,Potency,[9],inactive
same,Potency,[10],"inconclusive: 27.3 µM [cytotoxic, single point]"
Cc1cccc(C#N)c1,Potency,[11],inactive
CCCC[n+]1ccccc1C,Potency,[1],"inconclusive: 22 µM [activator, single point]"
same,Potency,[4],"inconclusive: 22 µM [activator, single point]"
same,Potency,[2],"inconclusive: 22 µM [activator, single point]"
C=CC=O,Potency,[9],inactive
same,Potency,[12],"inconclusive: 4.46 µM [rising, partial curve, poor fit]"
O=C(NC(=O)c1c(F)cccc1F)Nc1cc(Cl)c(F)c(Cl)c1F,Potency,[12],inactive
same,Potency,[6],"inconclusive: 0.17 µM [cytotoxic, single point]"
Oc1ccc(Cl)cc1Cl,Potency,[13],active: 48.6 µM
CC(C)C1(C)N=C(c2ncccc2C(=O)O)NC1=O (stereo not drawn),Potency,[14],inactive
same,Potency,[13],inactive
CCCN,Potency,[14],inactive
ClC1=C(Cl)[C@]2(Cl)[C@@H]3[C@@H](Cl)[C@H](Cl)C[C@@H]3[C@@]1(Cl)C2(Cl)Cl,Potency,[8],"inconclusive: 21.9 µM [activator, single point]"
same,Potency,[13],inactive
same,Potency,[10],inactive
COC(=O)c1ccccc1S(=O)(=O)NC(=O)Nc1nc(C)cc(C)n1,Potency,[15],inactive
same,Potency,[16],inactive
same,Potency,[6],"inconclusive: 2.19 µM [cytotoxic, single point]"
CCCCCCCCCCCC#N,Potency,[16],inactive
same,Potency,[14],inactive
same,Potency,[1],active: 45.2 µM
same,Potency,[4],active: 50.7 µM
same,Potency,[2],inactive and active: 45.2 µM
C=C(C)CN(CC)c1c([N+](=O)[O-])cc(C(F)(F)F)cc1[N+](=O)[O-],Potency,[6],inactive
CCCCCCCCP(=O)(O)O,Potency,[9],"inconclusive: 77 µM [activator, partial curve, poor fit]"
same,Potency,[17],inactive
CCOP(=S)(OCC)SCSc1cc(Cl)ccc1Cl,Potency,[8],inactive
CCOP(=O)(OCC)OP(=O)(OCC)OCC,Potency,[7],inactive
Clc1cnc(Oc2ccc(Oc3ncc(Cl)cc3Cl)cc2)c(Cl)c1,Potency,[3],inactive
same,Potency,[1],inactive
same,Potency,[4],"inactive and inconclusive: 43.6 µM [activator, single point]"
same,Potency,[2],"inconclusive: 49 µM [activator, partial curve, poor fit]"
C=CC(=O)NC(C)(C)CC(C)=O,Potency,[15],inactive
CCCC[N+](CCCC)(CCCC)CCCC,Potency,[17],"inconclusive: 38.5 µM [rising, partial curve, poor fit]"
CC(=O)CC(c1ccc(Cl)cc1)c1c(O)c2ccccc2oc1=O (stereo not drawn),Potency,[5],inactive
same,Potency,[11],inactive
same,Potency,[14],inactive
CCNc1nc(NCC)nc(SC)n1,Potency,[2],inactive
same,Potency,[10],inactive
CNC(=O)/C=C(\C)OP(=O)(OC)OC,Potency,[12],inactive
CC(C)CC#N,Potency,[7],inactive
same,Potency,[6],inactive
CN(C)c1nc(=O)n(C2CCCCC2)c(=O)n1C,Potency,[2],inactive
same,Potency,[6],inactive
same,Potency,[18],"inconclusive: 70.8 µM [cytotoxic, partial curve, poor fit]"
CC(=O)C1CCOC1=O (stereo not drawn),Potency,[12],inactive
same,Potency,[17],inactive
Nc1cc2c3c(c1)C(c1ccccc1)=N[C@@H](NC(=O)c1cccnc1)C(=O)N3CC2,Potency,[11],inactive
N#CCCCCC#N,activation,[14],inconclusive: 1.02%
same,Potency,[4],"inconclusive: 61.6 µM [activator, single point]"
C[N+](C)(C)CC(=O)[O-],Potency,[9],inactive
same,Potency,[10],inactive
[O-][Cl+3]([O-])([O-])O,Potency,[18],inactive
COC(=O)C1(O)c2ccccc2-c2ccccc21,Potency,[7],inactive
C[C@]12CC[C@H]3[C@@H](CC=C4C[C@@H](O)CC[C@@]43C)[C@@H]1CC[C@@H]2O,Potency,[14],"inconclusive: 0.0422 µM [activator, full curve]"
same,Potency,[8],inactive
Cc1ccc([N+](=O)[O-])cc1C,"viability change, negative = cytotoxic",[16],inconclusive: -37.8% [cytotoxic]
same,Potency,[13],inactive
O=C(Cl)C(Cl)Cl,Potency,[5],inactive
same,Potency,[15],inactive
CC12CC1(C)C(=O)N(c1cc(Cl)cc(Cl)c1)C2=O (stereo not drawn),Potency,[7],active: 6.14 µM and active: 3.89 µM
same,Potency,[3],"inconclusive: 76.6 µM [inhibitor, single point]"
same,Potency,[16],"inconclusive: 0.217 µM [cytotoxic, full curve, poor fit]"
O=C1CC[C@@]2(O)[C@H]3Cc4ccc(O)c5c4[C@@]2(CCN3CC2CC2)[C@H]1O5,Potency,[14],inactive
same,Potency,[8],inactive
CCN[C@@H](C)Cc1cccc(C(F)(F)F)c1,Potency,[3],"inconclusive: 60 µM [inhibitor, single point]"
same,Potency,[4],inactive
CC(C)(C)NCC(O)c1cc(Cl)c(N)c(Cl)c1 (stereo not drawn),Potency,[19],active: 0.0021 µM
same,Potency,[17],"inconclusive: 8.41 µM [cytotoxic, full curve]"
same,Potency,[18],"inconclusive: 23.7 µM [cytotoxic, partial curve]"
same,Potency,[10],"inconclusive: 26.6 µM [cytotoxic, partial curve]"
O=C(Oc1ccc(Br)cc1)N1CCN2CCC1CC2,Potency,[15],inactive
same,Potency,[3],"inconclusive: 68.6 µM [inhibitor, single point]"
same,Potency,[6],inactive
CCC#N,Potency,[13],inactive
CON(C)C(=O)Nc1ccc(Br)cc1,Potency,[9],"inconclusive: 54.5 µM [activator, partial curve]"
COC(=O)[C@@H](N)CCCN/C(N)=N/[N+](=O)[O-],Potency,[9],inactive
CCOC(=O)C(Cl)Cc1cc(-n2nc(C)n(C(F)F)c2=O)c(F)cc1Cl (stereo not drawn),Potency,[15],inactive
same,Potency,[11],inactive
same,Potency,[19],"inconclusive: 54.5 µM [activator, partial curve, poor fit]"
CCCSC(=O)N(CCC)CCC,Potency,[10],inactive
